From publication PMC4336329 (PLoS ONE, 2015)
In all, about 310,000 compounds went through this assay and about 14,000 (4.5%) showed an effect of 50% or more. Effects have a minus sign here. The list shows a part of the results.

molecular target: human ether-à-go-go-related gene (hERG) potassium channel (human, UniProt Q12809); assay: primary screen, population patch clamp on CHO cells stably expressing hERG
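Further: peak tail current of the secondary pulse compared with the same well before compound.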

Chain of human ether-à-go-go-related gene (hERG) potassium channel (Q12809 whole entry, looked up): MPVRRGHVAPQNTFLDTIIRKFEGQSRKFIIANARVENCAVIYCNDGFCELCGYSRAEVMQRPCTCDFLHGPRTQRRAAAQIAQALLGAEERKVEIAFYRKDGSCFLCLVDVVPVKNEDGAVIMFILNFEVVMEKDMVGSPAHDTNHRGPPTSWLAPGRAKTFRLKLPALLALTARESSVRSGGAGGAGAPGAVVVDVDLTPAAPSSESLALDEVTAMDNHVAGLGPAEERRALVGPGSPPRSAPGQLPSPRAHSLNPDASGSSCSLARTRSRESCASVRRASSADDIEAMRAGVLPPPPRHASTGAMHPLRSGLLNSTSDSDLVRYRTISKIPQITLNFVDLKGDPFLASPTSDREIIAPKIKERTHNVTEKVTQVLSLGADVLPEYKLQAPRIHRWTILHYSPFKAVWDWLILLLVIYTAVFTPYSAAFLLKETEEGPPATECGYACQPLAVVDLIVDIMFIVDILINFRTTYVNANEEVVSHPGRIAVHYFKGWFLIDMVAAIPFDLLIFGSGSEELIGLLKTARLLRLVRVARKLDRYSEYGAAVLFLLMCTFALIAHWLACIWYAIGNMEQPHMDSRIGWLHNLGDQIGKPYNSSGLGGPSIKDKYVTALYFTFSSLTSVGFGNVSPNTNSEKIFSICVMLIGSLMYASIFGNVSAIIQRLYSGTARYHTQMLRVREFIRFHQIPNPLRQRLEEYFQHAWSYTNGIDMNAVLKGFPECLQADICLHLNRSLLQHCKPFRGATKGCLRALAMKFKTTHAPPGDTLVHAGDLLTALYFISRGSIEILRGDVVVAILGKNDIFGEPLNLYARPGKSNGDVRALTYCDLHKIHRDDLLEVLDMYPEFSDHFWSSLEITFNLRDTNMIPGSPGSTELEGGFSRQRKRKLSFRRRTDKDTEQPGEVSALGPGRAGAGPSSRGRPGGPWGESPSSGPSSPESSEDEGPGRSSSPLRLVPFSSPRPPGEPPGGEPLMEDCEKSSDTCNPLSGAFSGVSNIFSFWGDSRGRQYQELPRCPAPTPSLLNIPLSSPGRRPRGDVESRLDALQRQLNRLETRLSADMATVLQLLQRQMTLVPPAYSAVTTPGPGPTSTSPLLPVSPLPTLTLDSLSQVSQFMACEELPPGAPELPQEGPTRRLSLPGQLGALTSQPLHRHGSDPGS

Structure (SMILES) | hERG current change (%, negative = inhibition) at 10uM [%]
COc1cccc(C(=O)CC(=O)C(=O)Nc2ccc(C)cc2Cl)c1 | 7.53
COc1cccc(/C=C2\SC(=O)N(CCC(=O)NNC(=O)c3ccccc3Cl)C2=O)c1 | -2.44
Cc1cc2nc(SCC(=O)N(C)C)c3c(c2cc1C)CCCC3 | -8.59
O=C(NCCC1=CCCCC1)c1ccc(Cl)c(S(=O)(=O)N2CCCCC2)c1 | 2.87
COCCOC(=O)c1c(C)oc2ccc(OC(=O)c3c(OC)cccc3OC)cc12 | 11
CCOC(=O)C1CCN(S(=O)(=O)c2ccc3c(c2)CC(=O)N3C)CC1 | -22
O=C(CSc1nnc(CNc2ccc(F)cc2)o1)N1CCN(C(=O)c2ccco2)CC1 | -50.8
CC/C(=N\NC(=O)CSCc1ccc(Cl)cc1)c1ccc2c(c1)OCCO2 | 17.4
COc1ccc(CNCC(=O)Nc2ccccc2-n2cccc2)cc1.Cl | -15.6
COc1ccc(C(=O)Oc2cc(OC)cc(OC)c2C(C)=O)cc1 | -2.89
COc1cc2[nH]c3c(=O)n(N)c(=O)[nH]c3c2cc1OC | 14
O=C1OCCN/C1=C\C(=O)c1ccccc1 | 2.91
CN(C)c1ccc(C(C#N)c2ccccc2)nn1 (centres unmarked) | 34.5
COc1ccc(OC)c(CNC(=O)C2CCN(S(=O)(=O)N3CCC(C)CC3)CC2)c1 | -31.8
CNc1c(NS(=O)(=O)c2cc(Cl)ccc2OC)c(=O)oc2ccccc12 | 13.6
CCOC(=O)c1cc2c(ccn2C)n1CC(=O)N1CCC(C)CC1 | 4.25
N#Cc1cc(-c2ccccc2)nn1-c1ccccc1 | 15.1
Nc1nc(CSc2ncn[nH]2)nc(Nc2ccc(F)cc2)n1 | 6.74
CS(=O)(=O)c1ccc(C(=O)OCC(=O)N(CCc2ccccc2)Cc2ccccc2)cc1 | -11.6
O=C(Nc1cc(Cl)cc(Cl)c1)N1CCN(C(=O)C2CCCO2)CC1 (centres unmarked) | -26.4
COc1ccc(Cc2nc(-c3cccs3)no2)cc1OC | -5.46
CC(=O)c1c(C)[nH]c(C(=O)Nc2nc(-c3ccc(-c4ccccc4)cc3)cs2)c1C | 19.3

Structure (SMILES) | hERG current change (%, negative = inhibition) at 10uM [%]
O=C(NCc1ccncc1)c1cccc(S(=O)(=O)N2CCc3ccccc32)c1 | -31.3
Cc1c(-n2c(SCC(=O)O)nnc2-c2ccccc2Cl)c(=O)n(-c2ccccc2)n1C | 18.7
COc1ccc(CN2CCN(Cc3cccc(OC)c3)C(CCO)C2)cc1 (centres unmarked) | -45.8
CSc1cccc(NC(=O)C2CCN(S(=O)(=O)c3cnc[nH]3)CC2)c1 | 9.39
NC(=O)c1nsc(C(=O)N(CC(=O)NC2CCCCC2)Cc2ccc(F)cc2)c1N | -8.15
CCCN(CC1CC1)C(=O)Nc1ccccc1C | 1.34
CCCCNC(=O)COC(=O)c1cc2c(C)nn(-c3ccccc3)c2s1 | 17.8
CCOc1ccc(NC(=O)CN2CCc3ccccc3C2)cc1 | -6.01
CCN(c1ccccc1)S(=O)(=O)c1ccc(C(=O)Nc2ncccc2C)cc1 | -3.17
C#CCOCCOCCOCCNc1nc(N2CCN(C(=O)C([C@@H](C)CC)n3cc(C(N)COC(=O)C(F)(F)F)nn3)CC2)nc(N2CCN(C(=O)[C@H](CCCCN)n3cc(C(N)[C@H](C)CC)nn3)CC2)n1.Cl (some centres unmarked) | 5.88
CCc1ccc(S(=O)(=O)Nc2nnc(N)s2)cc1 | 11.1
Cc1n[nH]c(C)c1N=Nc1ccc(Br)cc1 | 44.7
CC(C)(C)NC(=O)Cn1nnc(-c2ccccc2NC(=O)c2cnccn2)n1 | 4.48
O=C(COc1cccc(Cl)c1)NCc1ccccc1 | 18.9
COc1ccc(N2C(=O)CC(N3CCN(c4ccc(S(=O)(=O)N5CCCC5)cc4)CC3)C2=O)cc1 (centres unmarked) | -10.4
CCOc1ccccc1NC(=O)c1ccc2c(c1)C(=O)N(C(C)(C)C)C2=O | 24.6
COc1ccc(-c2nc3cc([N+](=O)[O-])ccc3o2)cc1OC | 10.3
COCCNC(=O)c1noc2c1CCc1cc(OC)ccc1-2 | -6.83
CCOc1cccc(C(=O)Nc2nc(-c3ccc(S(=O)(=O)N4CCOCC4)cc3)cs2)c1 | -0.459
CCCn1c(=O)c(C(=O)NCc2ccccc2)c(O)c2ccccc21 | 7.64
CC12CC3CC(C)(C1)CC(C(=O)Nc1nn[nH]n1)(C3)C2 | 18.4
CC(C)Oc1ccc(CC(=O)NNC(=S)Nc2ccc(Br)cc2)cc1 | -1.09
